Assay results: PubChem BioAssay AID588579 (National Center for Advancing Translational Sciences (NCATS), 2011)
“And” between values parts separate entries of the source, which are not always exact repeats. Equal entries are not always repeated. About 2,200 (0.55%) of roughly 400,000 compounds were called active. The shares of active, inactive and inconclusive entries below differ from those in the screen. The call rests on the fitted dose curve; in most records, active means well fitted inhibition curve with a large enough effect; inconclusive means small, poorly fitted or top-dose-only effect, or another doubt; inactive means no such curve, though single readings can be large or run the other way. Where the call is inconclusive, the potency comes from a doubtful curve fit. Some structures have more than one record in an assay (separate samples or runs), and their calls can disagree.

biological target: DNA polymerase kappa (Homo sapiens) (UniProt Q9UBT6); test: qHTS for Inhibitors of Polymerase Kappa; details: purified Pol kappa, fluorescent DNA synthesis assay, 10 min; series mostly up to 107 µM; activity, negative = inhibition: at the top concentration
In short: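 Readout: fluorescence, taken kinetically at 0 and 10 min. Conditions: 10 nM Pol kappa, 15 min RT compound preincubation, 50 nM substrate final. Controls: enzyme-free buffer wells.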
On the % scale 0 is the no-effect control and ±100 the full control effect; potency means the concentration at half of the fitted maximal effect; tags describe the fitted curve by direction and shape.

UniProt Q9UBT6, sequence (Q9UBT6 whole entry, looked up): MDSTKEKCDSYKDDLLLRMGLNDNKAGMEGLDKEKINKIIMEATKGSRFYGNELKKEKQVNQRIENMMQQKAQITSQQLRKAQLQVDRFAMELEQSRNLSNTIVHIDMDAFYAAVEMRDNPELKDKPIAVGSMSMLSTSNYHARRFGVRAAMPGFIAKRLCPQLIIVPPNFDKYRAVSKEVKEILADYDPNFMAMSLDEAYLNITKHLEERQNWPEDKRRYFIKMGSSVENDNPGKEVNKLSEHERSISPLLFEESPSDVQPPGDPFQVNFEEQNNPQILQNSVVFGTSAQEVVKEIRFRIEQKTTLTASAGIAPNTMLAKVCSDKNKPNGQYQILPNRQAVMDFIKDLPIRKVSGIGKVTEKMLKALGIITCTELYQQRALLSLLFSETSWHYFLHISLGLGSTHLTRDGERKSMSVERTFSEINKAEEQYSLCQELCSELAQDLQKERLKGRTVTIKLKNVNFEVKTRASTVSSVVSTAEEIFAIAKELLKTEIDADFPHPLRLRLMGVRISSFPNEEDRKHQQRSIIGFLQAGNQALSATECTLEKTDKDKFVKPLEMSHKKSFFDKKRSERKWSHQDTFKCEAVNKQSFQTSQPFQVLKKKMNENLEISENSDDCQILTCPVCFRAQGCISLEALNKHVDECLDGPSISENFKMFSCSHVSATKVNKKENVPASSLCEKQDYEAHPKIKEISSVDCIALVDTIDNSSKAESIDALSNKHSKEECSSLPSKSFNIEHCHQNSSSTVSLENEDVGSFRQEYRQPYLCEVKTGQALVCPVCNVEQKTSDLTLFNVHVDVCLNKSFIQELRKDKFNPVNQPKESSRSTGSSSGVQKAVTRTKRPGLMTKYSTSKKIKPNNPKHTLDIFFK

SMILES	activity, negative = inhibition	Potency
CC/C(C)=N\NC(=O)CNC(=O)c1ccc(Cl)cc1Cl	inactive: 6.47%	–
CN(C)CCN1C(=O)c2cccc3cc([N+](=O)[O-])cc(c23)C1=O	–	inconclusive: 56.2 µM [inhibitor, partial curve, poor fit]
C/C(=N\NC(=O)c1cc2ccccc2cc1O)c1ccc2c(c1)OCO2	–	inconclusive: 100 µM [inhibitor, single point]
Cc1ccc(S(=O)(=O)Nc2ccccc2C(=O)Nc2sccc2C(=O)NN(C)C)cc1	–	inconclusive: 39.8 µM [inhibitor, single point]
COc1ccc(-c2nnc(SCC(=O)N3CCCCC3)o2)c(OC)c1	–	inconclusive: 25.1 µM [inhibitor, partial curve, poor fit]
Nc1cc2c(cc1[N+](=O)[O-])OCO2	–	inconclusive: 89.1 µM [inhibitor, single point]
CCc1ccc(Oc2c(C(F)(F)F)oc3c(CN4CCC(C)CC4)c(O)ccc3c2=O)cc1	inactive: -0.503%	–
COc1cc(OC)cc(C(=O)N[C@H](C(=O)OCC(=O)Nc2sccc2C#N)C(C)C)c1	–	inconclusive: 79.4 µM [inhibitor, partial curve]
CS(=O)(=O)N1Cc2ccccc2CC1C(=O)OCC(=O)NCc1ccccc1 (centres undefined)	–	inconclusive: 89.1 µM [inhibitor, single point]
Cc1nnc(-c2ccccc2)nc1N(C)C	inactive: -1.35%	–
Cc1ccc(OCCNC(=O)CCc2nc3sc4c(c3c(=O)[nH]2)CCCC4)cc1	–	inconclusive: 79.4 µM [inhibitor, partial curve]
O=C(CCC(=O)c1cccs1)NNC(=O)c1ccccc1O	–	inconclusive: 100 µM [inhibitor, single point]
CCc1cccc(NC(=O)Cn2c(=O)n(CC(=O)NCCc3ccccc3)c(=O)c3ccccc32)c1	–	inconclusive: 3.55 µM [inhibitor, full curve, poor fit]
COc1ccccc1N(C)S(=O)(=O)c1ccc(C(=O)N2CCCC(C(F)(F)F)C2)cc1 (centres undefined)	inactive: -2.32%	–
Cc1ccnc2nc(C(=O)Nc3nc(-c4ccccn4)cs3)nn12	–	inconclusive: 56.2 µM [inhibitor, partial curve, poor fit]
COc1ncc2nc(-c3ccc(F)cc3)c(=O)n(CCC#N)c2n1	inactive: 2.33% [at 60.1 µM]	–
Cc1c2ccccc2nc2c(F)c(NCCO)c(F)c(F)c12	–	active: 79.4 µM
CC(C)(C)c1ccc(-n2nc(C(N)=O)c(O)cc2=O)cc1	–	inconclusive: 100 µM [inhibitor, single point]
Cc1cccc(CNc2ccnc(-c3cccnc3)n2)c1	inactive: -9.88% [at 60.1 µM]	–
O=C(C[n+]1ccccc1)c1ccc(O)c(O)c1	–	inconclusive: 1.78 µM [inhibitor, full curve, poor fit]

SMILES	activity, negative = inhibition	Potency
Cc1sc2ncnc(N3CCN(Cc4ccccc4)CC3)c2c1-c1ccccc1	–	inconclusive: 89.1 µM [inhibitor, single point]
CSc1nc2ccc3nc(NC(=O)c4cccs4)sc3c2s1	–	inconclusive: 89.1 µM [inhibitor, partial curve, poor fit]
COC(C(=O)C(O)C(C)O)C1Cc2cc3cc(OC4CC(OC5CC(O)C(O)C(C)O5)C(O)C(C)O4)c(C)c(O)c3c(O)c2C(=O)C1OC1CC(OC2CC(OC3CC(C)(O)C(O)C(C)O3)C(O)C(C)O2)C(O)C(C)O1 (centres undefined)	–	inconclusive: 56.2 µM [inhibitor, partial curve, poor fit] and inconclusive: 15.8 µM [inhibitor, single point]
Cn1c(=O)n(C)c2cc(N3CCOCC3)c(NC(=O)c3c(F)cccc3F)cc21	–	inconclusive: 89.1 µM [inhibitor, partial curve, poor fit]
COc1ccc(Nc2c3c(nc4ccc(NC(=O)/C=C/c5cccc(OC)c5OC)cc24)CCCC3)cc1OC	–	active: 12.6 µM
COc1ccc(OC)c2[nH]c(=O)c(CCNC(=O)Cc3cccs3)cc12	–	inconclusive: 100 µM [inhibitor, partial curve, poor fit]
CC1CCCCC1NC(=O)COC(=O)c1c2c(nc3ccccc13)/C(=C\c1ccco1)CC2 (centres undefined)	–	active: 22.4 µM
CN(C)c1ccc(/C=C\C=C/c2ccnc3ccccc23)cc1	–	inconclusive: 89.1 µM [inhibitor, single point]
COc1ccc2c(c1)c(=O)oc1cc(OCC(=O)N3CCC(C)CC3)ccc12	–	inconclusive: 89.1 µM [inhibitor, single point]
CCc1oc2ccccc2c1C(=O)c1cc(I)c(O)c(I)c1	–	inconclusive: 37.7 µM [inhibitor, single point]
O=C(N/N=C/c1cc(Cl)ccc1O)c1ccc(Br)cc1	–	inconclusive: 79.4 µM [inhibitor, partial curve]
Cc1oc2c(O)c(O)ccc2c(=O)c1-c1ccc(Cl)cc1	–	inconclusive: 79.4 µM [inhibitor, partial curve, poor fit]
NS(=O)(=O)c1ccc(CNC(=O)Cc2cccs2)cc1	–	inconclusive: 89.1 µM [inhibitor, single point]
COc1cccc2c1C(=N)c1c(O)c3c(c(O)c1C2=O)CC(O)(C(C)=O)CC3OC1CC(N)C(O)C(C)O1 (centres undefined)	–	inconclusive: 39.8 µM [inhibitor, partial curve]
CC(C)(C)NC(=O)[C@H]1CN(Cc2cccnc2)CCN1C[C@@H](O)C[C@@H](Cc1ccccc1)C(=O)N[C@H]1c2ccccc2C[C@H]1O	–	inconclusive: 39.8 µM [inhibitor, single point]
CCN(CCCNC(=O)c1cc2cc3ccc(OC)cc3nc2s1)c1cccc(C)c1	–	inconclusive: 89.1 µM [inhibitor, single point]
Cc1ccc(S(=O)(=O)N2CCC(c3nc(-c4cccs4)nc4ccccc34)CC2)cc1	–	inconclusive: 89.1 µM [inhibitor, single point]
Cc1ccc(C(=O)Nc2nnc(CC(=O)N/N=C/c3ccc(O)c(O)c3)s2)cc1	–	inconclusive: 20 µM [inhibitor, partial curve, poor fit]
CC(C)CC(=O)Nc1nnc(SCC(=O)Nc2nccs2)s1	–	inconclusive: 100 µM [inhibitor, single point]
CN1CCCC1CCO[C@@](C)(c1ccccc1)c1ccc(Cl)cc1 (some centres undefined)	inactive: 0.404% [at 60.1 µM]	–

SMILES	activity, negative = inhibition	Potency
CCc1cc(=O)oc2cc(C)c(CN3CCCC3)c(O)c12	–	active: 8.91 µM
O=[S+]([O-])([O-])c1ccc2c(c1)cc([S+](=O)([O-])[O-])c1nn(-c3ccc(/C=C/c4ccc(-n5nc6c([S+](=O)([O-])[O-])cc7cc([S+](=O)([O-])[O-])ccc7c6n5)cc4[S+](=O)([O-])[O-])c([S+](=O)([O-])[O-])c3)nc12	–	active: 10 µM
O=c1cc(O)nc(SCc2ccccc2)n1-c1ccccc1	–	inconclusive: 79.4 µM [inhibitor, partial curve, poor fit]
CC1OC(OCC2OC(Oc3c(-c4ccc(O)c(O)c4)oc4cc(O)cc(O)c4c3=O)C(O)C(O)C2O)[C@@H](O)C(O)C1O (some centres undefined)	–	active: 10 µM
O=c1c2oc3ccccc3c2n(Cc2cccc(Cl)c2)c(=O)n1Cc1ccco1	–	inconclusive: 100 µM [inhibitor, single point]
COc1ccc(CCN2C(=O)CC(C(N)=O)SC2=Nc2ccccc2)cc1 (centres undefined)	inactive: -20.9%	–
COc1ccc(OC)c(-c2nnc3n2N=C(c2ccc(OC)c(OCC4CC4)c2)CS3)c1	–	inconclusive: 79.4 µM [inhibitor, partial curve]
Cc1ccc(C(=O)Nc2ccc(S(=O)(=O)O)c3cc(S(=O)(=O)O)cc(S(=O)(=O)O)c23)cc1NC(=O)c1cccc(NC(=O)Nc2cccc(C(=O)Nc3cc(C(=O)Nc4ccc(S(=O)(=O)O)c5cc(S(=O)(=O)O)cc(S(=O)(=O)O)c45)ccc3C)c2)c1	–	active: 89.1 nM and active: 100 nM and active: 31.6 nM
NC(=S)n1[nH]c(-c2ccc([N+](=O)[O-])cc2)c(N=Nc2cccc([N+](=O)[O-])c2)c1=O	–	inconclusive: 89.1 µM [inhibitor, single point]
CN=C1S/C(=C\c2c(OC)cc(OC)cc2OC)C(=O)N1C	inactive: 3.05%	–
O=c1c(C(c2ccc(Cl)cc2)c2c(O)nc3n(c2=O)CCS3)c(O)nc2n1CCS2	–	inconclusive: 79.4 µM [inhibitor, partial curve]
C=CCn1c(SCC(=O)c2ccc(O)c(O)c2)nnc1-c1ccccc1OC	–	inconclusive: 56.2 µM [inhibitor, partial curve, poor fit]
O=C(COC(=O)c1ccccc1OCCOc1ccccc1)Nc1ccc(Br)cc1	inactive: -33.8%	–
O=[N+]([O-])c1ccc(NN=Cc2ccco2)nc1	–	inconclusive: 89.1 µM [inhibitor, single point]
O=C1/C(=C\c2ccc([N+](=O)[O-])cc2)CS(=O)(=O)C/C1=C/c1ccc([N+](=O)[O-])cc1	–	active: 79.4 µM
C/C=C(/CC[C@@H](C)[C@H]1CCC2C3=CC[C@H]4[C@H](C)[C@@H](O)CC[C@]4(C)C3CC[C@@]21C)C(C)C (some centres undefined)	–	inconclusive: 39.8 µM [inhibitor, partial curve, poor fit]
O=C1CSC(=S)N1N=Cc1ccc(Cl)s1	–	inconclusive: 56.2 µM [inhibitor, partial curve, poor fit]
CCN(CC)c1ccc(NC(=O)CCS(=O)(=O)c2ccc(Br)cc2)c(C)c1	–	inconclusive: 89.1 µM [inhibitor, partial curve, poor fit]
O=C1C=CC(=O)c2c(O)c(CO)c(CO)c(O)c21	–	active: 3.55 µM
